# PubChem BioAssay AID1963576 (National Center for Advancing Translational Sciences (NCATS), 2024)
# The whole screen tested about 46,000 compounds, of which about 60 (0.1%) were called active. Inconclusive results (about 3%) are left out. Calls follow the shape of the dose curve; as a rule, active = well fitted inhibition curve with a large enough effect; inconclusive = small, poorly fitted or top-dose-only effect; inactive = no such curve, though single readings can be large or run the other way. Some of the results follow.
# Assay: Primary qHTS assay for Inhibitors of ovarian cancer metastasis using an organotypic tumor microenvironment (TME) model. Also: nearly all actives have a fitted effect of over 65% in size.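 As to activity change, negative = inhibition: plate controls were DMSO wells for no effect and tomatine positive control wells for full effect.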
# Details: SKOV3ip1-GFP adhesion/invasion on 3D omental model, fluorescence; series mostly up to 45.8 µM; activity change, negative = inhibition: at the top concentration
# In short: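 Adhesion/invasion was scored as fixed GFP-labeled SKOV3ip1 cell counts (488/509 nm), normalized to DMSO and tomatine controls. Cancer cells in serum-free medium, with four compound doses (0.36-46 umol/L), sat 2 hr at RT then 16 hr at 37 C on a 48 hr fibroblast/mesothelial/ECM culture.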
SMILES,"activity change, negative = inhibition",outcome
O=C(NCc1ccccc1)C1CCC(CNS(=O)(=O)c2ccc(Br)s2)CC1 (stereo not given),inactive: 0.731%,–
COc1ccc(CN(C(=O)Nc2ccc(C)c(F)c2)C2CCN(C(C)=O)CC2)cc1,inactive: 1.06%,–
CC(C)c1ccc(C(=O)Nc2cccc3cccnc23)cc1,inactive: 3.18%,–
CNC(=O)c1cc2n(n1)CCCN(Cc1ccc(F)cc1)C2=O,inactive: -12.6%,–
O=C1C(c2ccc(F)cc2)N(CCc2ccccc2)C(=O)CN1C1CCCCC1 (stereo not given),inactive: 4.58%,–
CC1CCN(S(=O)(=O)c2cc(C(=O)NCc3ccc(F)cc3)n(C)c2)CC1,inactive: -10.9%,–
COc1cccc(COC(=O)c2ccc(-c3nnn(Cc4ccccc4)n3)cc2)c1,inactive: 3.18%,–
Cc1ccccc1C(=O)Nc1nnc(SCc2cc(=O)c3c(C)ccc(C)c3[nH]2)s1,inactive: 17%,–
CCc1ccc(NC(=O)Cn2nnc(C(=O)NCc3ccco3)c2N)cc1,inactive: 4.87%,–
Cc1ccc(NC(=O)CCS(=O)(=O)c2ccc3nc(C)sc3c2)cc1,inactive: 6.58%,–
CCC1CN(C(=O)N2CCC(C(=O)NCCOC)CC2)c2ccccc2O1 (stereo not given),–,inactive
CSc1ccc(CCNC(=O)c2cc3n(n2)CCCN(Cc2ccc(C)cc2)C3=O)cc1,inactive: -1.7%,–
CC(=O)c1ccc(NC(=O)CCc2c(C)nn(-c3ccc4nncn4n3)c2C)cc1,–,inactive
CCOc1ccc(CCNS(=O)(=O)c2c(C)nc3sc(C)cn3c2=O)cc1OCC,inactive: -3.02%,–
COC(=O)c1ccc(Cn2nc(-c3ccc(C)c(C)c3)ccc2=O)cc1,inactive: -1.47%,–
CC(C)c1ccc(NS(=O)(=O)c2ccc3[nH]c(=O)ccc3c2)cc1,inactive: 4.9%,–
CCc1ccc(NC(=O)C2CCCN(S(=O)(=O)c3c(C)[nH]c(=O)[nH]c3=O)C2)cc1 (stereo not given),–,inactive
O=C(Nc1noc2ccccc12)c1cccc(F)c1,inactive: 5.42%,–
CC(C)c1ccc(NC(=O)C2CCCN(S(=O)(=O)c3cccc4nonc34)C2)cc1 (stereo not given),–,inactive
COCCc1nn2c(=O)cc(COC(=O)COc3ccccc3C)nc2s1,inactive: -8.75%,–
O=C(CCS(=O)(=O)c1cc2c3c(c1)CCN3C(=O)CC2)NCc1ccc(F)cc1,inactive: 4.92%,–
COc1ccc(Cl)cc1Nc1ncnc2c1nc1n2CCCC1,inactive: 0.409%,–
COC(=O)c1ccc(C2c3c(oc4cc(C)c(C)cc4c3=O)C(=O)N2c2ccccn2)cc1 (stereo not given),inactive: -3.36%,–
CCOC(=O)c1c(S(=O)(=O)N2CCCC(C(=O)Nc3ccc(C)cc3C)C2)c(C)n(CC)c1C (stereo not given),inactive: 2.15%,–

SMILES,"activity change, negative = inhibition",outcome
CCOC(=O)c1ccccc1NC1(c2ccc(OC)cc2)C(=O)c2ccccc2C1=O,inactive: 6.69%,–
CCC(=O)Nc1ccc2nc(SCC(=O)N3CCc4ccccc43)sc2c1,–,inactive
Cc1cc(C)c(NC(=O)CSc2nnc3[nH]c(=O)cc(C)n23)c(C)c1,inactive: -4.54%,–
O=c1c2ccccc2n2c(-c3ccc(F)c(F)c3)nnc2n1CCc1ccccc1,inactive: 0.589%,–
O=C(NCc1ccc(Cl)cc1)C(=O)NCC(c1ccco1)S(=O)(=O)c1cccs1 (stereo not given),inactive: -8.26%,–
CCCCNC(=O)c1ccc2c(=O)n(-c3ccccc3)c(=O)[nH]c2c1,inactive: -2.82%,–
Cc1ccc(CNC(=O)c2ccc(-c3nc(CN4CCc5ccccc54)c(C)o3)cc2)cc1,–,inactive
COc1ccc(CCC(=O)NC2CC(=O)N(c3ccc(C)c(C)c3)C2)cc1 (stereo not given),–,inactive
Cc1ccc(NC(=O)c2sc3nc(-c4ccc(F)cc4)cn3c2C)c(C)c1,inactive: -1.16%,–
CC(=O)Nc1ccc(C(=O)CSc2nnc3cc(C)c4ccccc4n23)cc1,inactive: 14.2%,–
CCOC(=O)C1CCN(C(=O)CSc2c3c(nc4ccc(Cl)cc24)CCCC3)CC1,inactive: -6.9%,–
CCOc1ccc(S(=O)(=O)Nc2ccc3c(c2)c(C(C)=O)c(C)n3S(=O)(=O)c2ccc(OCC)cc2)cc1,–,inactive
COc1ccc2nc(NS(=O)(=O)c3ccc(C)cc3)c(Nc3cc(Cl)ccc3OC)nc2c1,–,inactive
O=C(NCC1(c2ccccc2)CCCC1)C(=O)Nc1cccc(C(F)(F)F)c1,inactive: -3.06%,–
CCOc1ccc(CCNC(=O)CSc2cc(=O)n(C)c3ccccc23)cc1OCC,inactive: 0.542%,–
O=C(CSc1n[nH]c(-c2ccccc2)n1)N1CCCCC1,inactive: -0.602%,–
COC(=O)c1sccc1S(=O)(=O)N1CCN(c2cccc(C)c2C)CC1,inactive: -0.94%,–
COc1ccc(-c2cc(C(=O)N3CCN(c4ccccc4OC)CC3)c3cc(C(C)C)ccc3n2)cc1,inactive: -3.01%,–
Cc1ccc(Cl)cc1N1CCN(C(c2ccc(F)cc2)c2nnc(-c3ccccc3)o2)CC1 (stereo not given),inactive: -14.1%,–
COc1ccc(CNC(=O)C(=O)NCC(c2ccc3c(c2)OCO3)N2CCOCC2)cc1 (stereo not given),–,inactive
CCOC(=O)Cn1c(=O)oc2cc(S(=O)(=O)NCc3ccc(F)cc3)ccc21,inactive: 23.8%,–
Cc1noc(/C=C/N(C)C)c1S(=O)(=O)N1CCCC(C(=O)Nc2cccc(F)c2)C1 (stereo not given),inactive: 21.4%,–
CCOc1ccc(CC(=O)NCCc2csc3nc(-c4ccccc4F)nn23)cc1,inactive: -8.58%,–
CC(C=CC(=O)NO)=C[C@@H](C)C(=O)c1ccc(N(C)C)cc1,inactive: -0.223%,–

SMILES,"activity change, negative = inhibition",outcome
CCOc1ccc(-c2cc3c(=O)n(Cc4nc(-c5cccc(OC)c5OC)oc4C)ccn3n2)cc1Cl,inactive: -8.31%,–
CCc1ccc(-n2nc3ccc(NC(=O)c4cc5ccccc5o4)cc3n2)cc1,inactive: 10.5%,–
Cc1ccc(CNC(=O)c2cn(C)c3ccc(S(=O)(=O)N(C)C4CCCCC4)cc3c2=O)cc1,–,inactive
Cc1ccc(CNC(=O)c2nc(SCc3cccc(C)c3)ncc2Cl)cc1,–,inactive
COc1ccc(OC)c(S(=O)(=O)N2Cc3ccccc3CC2C(=O)Nc2ccc(C(C)=O)cc2)c1 (stereo not given),inactive: -24.2%,–
Cc1cc(C)c(Cn2c3ccccc3c3cnn(CC(=O)NCCCc4ccccc4)c(=O)c32)c(C)c1,inactive: -5.82%,–
O=C(NCc1cccc(Cl)c1)c1cccn1-c1nnc(N2CCCC2)s1,inactive: -28.3%,–
Cc1ccccc1Nc1c(-c2ccsc2)nc2c(C)cccn12,inactive: -4.53%,–
O=C(NCCc1ccccc1)c1ccc(Cn2c(SCc3ccc(F)cc3)nc3cccnc32)cc1,inactive: 5.59%,–
CCN(Cc1ccc(OC)cc1)c1ccc(-c2nc(-c3ccncc3)no2)cc1[N+](=O)[O-],inactive: -5.21%,–
CCC(=O)N1CCc2cc(S(=O)(=O)CCC(=O)N3CCN(c4cccc(C)c4)C(C)C3)ccc21 (stereo not given),–,inactive
Cc1ccc(-c2cn3cccc(C)c3n2)cc1NS(=O)(=O)c1ccccc1,–,inactive
Cc1cc(C)cc(C(=O)Nc2cc(C(F)(F)F)ccc2N2CCN(c3ccccc3)CC2)c1,–,inactive
Cc1ccccc1NC(=O)Cn1c(=O)n(Cc2ccc3c(c2)OCO3)c(=O)c2oc3ccccc3c21,inactive: -9.76%,–
CCCCN(c1ccccc1)c1ncnc2c1cnn2-c1ccc(Cl)cc1,inactive: 8.88%,–
COc1ccc(OC)c(CCNC(=O)CCn2c(=O)c3cccn3c3cccnc32)c1,–,inactive
Cc1ccc(CN(Cc2ccco2)c2cnc(S(C)(=O)=O)nc2C(=O)Nc2ccc(Br)cc2)o1,inactive: -11.7%,–
CC(=O)Nc1ccc(S(=O)(=O)NCC2CCC(C(=O)NCCCOC(C)C)CC2)cc1 (stereo not given),–,inactive
CCOc1cc(C(=O)OCc2cc(=O)n3c(C)csc3n2)cc(OCC)c1OCC,–,inactive
Cc1cccc(N(CC(=O)NC(C)c2ccccc2)S(=O)(=O)c2ccccc2)c1C (stereo not given),–,inactive
Cc1ccc(-c2nn3c(C)nnc3c3ccccc23)cc1S(=O)(=O)NCCO,inactive: -3.04%,–
O=C(NCCc1ccc(Cl)cc1)c1ccc2nc(Cc3ccccc3)oc2c1,inactive: 13.5%,–
Cc1cc(C)c(NC(=O)CSc2nc(=O)n(Cc3ccco3)c3c2CCC3)c(C)c1,inactive: 10.5%,–
COc1cccc(-c2nc(SCc3cc(=O)c4cc(Cl)ccc4[nH]3)n[nH]2)c1,inactive: -4.52%,–

SMILES,"activity change, negative = inhibition",outcome
CS(=O)(=O)c1ncc(N(Cc2ccccc2)Cc2ccco2)c(C(=O)Nc2cccc(C(F)(F)F)c2)n1,inactive: 8.91%,–
CC(C)Cn1c(=O)c2sccc2n2c(CCCC(=O)Nc3ccc(Cl)cc3)nnc12,inactive: 1.24%,–
CCOC(=O)c1c(NC(=O)c2cc(-c3ccccc3)on2)sc2c1CCCC2,inactive: -21.7%,–
CC(C)(C)C1CCc2c(sc(NC(=O)c3ccccc3F)c2C(=O)N2CCCCC2)C1 (stereo not given),inactive: 6.61%,–
Cc1ccc(Cl)cc1NC(=O)NC1COc2ccccc2C1 (stereo not given),inactive: -3.78%,–
CC(C)Oc1ccc(CNC(=O)Cc2ccc(NC(=O)N3CCSc4ncccc43)cc2)cc1,inactive: -10.2%,–
Cc1ccc2c(c1)c(=O)c(S(=O)(=O)c1ccc(F)cc1)cn2CC(=O)Nc1ccc2c(c1)OCO2,inactive: 1.45%,–
CCN(CC)C(=O)c1sc2c(c1C)c(=O)n(-c1ccc(C)c(C)c1)c(=O)n2CC(=O)Nc1ccc(F)cc1,inactive: -5.92%,–
O=C(Cc1ccc(Cl)cc1)Nc1ccc2oc(-c3ccccc3)nc2c1,inactive: 4.08%,–
CCOc1ccc(-c2nonc2NC(=O)c2ccccc2C)cc1,–,inactive
Cc1cc2c(cc1S(=O)(=O)Nc1cccc(C(F)(F)F)c1)OCCN2C,inactive: 2.84%,–
CCc1ccc(CN(Cc2ccco2)C(=O)c2cc(-c3ccc(Cl)cc3)on2)cc1,inactive: 18.7%,–
CCOc1ccc(-c2cc3c(=O)n(CC(=O)Nc4c(C)cccc4C)ccn3n2)cc1,–,inactive
Cc1ccc2[nH]c(CSc3nnc(NC(=O)COc4ccccc4F)s3)cc(=O)c2c1,inactive: -5.61%,–
Cc1cccc(Cn2c(CNS(=O)(=O)c3ccc(Cl)s3)nc3cccnc32)c1,inactive: -3.47%,–
Cc1ccc(C)c(OCCOCCn2c(-c3ccc(Br)cc3)nc3ccccc3c2=O)c1C,inactive: -12.2%,–
Cn1c(=O)oc2cc(S(=O)(=O)NCCC(=O)Nc3ccc(F)c(Cl)c3)ccc21,inactive: -8.82%,–
CC(C)CN(CCNC(=O)c1cc(=O)[nH]c2ccc(S(=O)(=O)N3CCCCCC3)cc12)CC(C)C,inactive: -2.82%,–
Cc1ccc(-n2ncc(C(=O)NCc3cccs3)c2C2CCN(C(=O)OC(C)(C)C)CC2)cc1C,inactive: 2.51%,–
Cc1cccc(C2N3CC4(C(C)C)CN2CC(C(C)C)(C3)C4=O)c1 (stereo not given),–,inactive
CCC(Cn1nnc2ccccc2c1=O)NC(=O)Nc1cc(Cl)ccc1OC (stereo not given),inactive: -7.38%,–
CCOc1ccc(NC(=O)CCCN2C(=O)C(c3ccccc3)Oc3cccnc32)cc1 (stereo not given),inactive: -4.44%,–
CC(=O)N1CCCc2cc(S(=O)(=O)N(C)CC(=O)Nc3ccc(F)c(Cl)c3)ccc21,inactive: 17%,–
